Measured values published in PubChem BioAssay AID757 (NMMLSC, 2007).
In all, about 190,000 compounds went through this assay and about 520 (0.27%) were called active. The shares of active, inactive and inconclusive entries below differ from those in the screen.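 How the source made its calls: active means GTP binding activity at least 20 points away from the 100% control level, either lower or higher; inconclusive means compound flagged as likely green fluorescent, judged across all proteins; inactive means the rest.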

Each molecule was assayed against Ras-related C3 botulinum toxin substrate 1 (Homo sapiens) (UniProt P63000) (assay: wildtype Rac1 GTP binding modulators, primary screen, biochemical, GST-Rac1 beads, flow cytometry, multiplex (AID 757)). Conditions: fluorescent GTP binding, at 10 µM, actives lie on both sides, 0 = cold GTP competed, 100 = untreated.

SMILES | GTP binding activity (% of control)
COc1ccc(OCC(=O)NNc2c3ccccc3nc3ccccc23)cc1 | inconclusive: 95%
CSc1nc2c(c(=O)n1C)SC(C)C2 (stereo unspecified) | inconclusive: 108%
Cc1ccc(S(=O)(=O)N(C)C)cc1NC(=S)N1CCCCC1CO (stereo unspecified) | inconclusive: 95%
O=C(CN1C(=O)c2ccccc2S1(=O)=O)Nc1cccnc1 | inconclusive: 104%
COc1cccc(-n2c(=S)sc3c(=O)n(-c4ccccc4OC)c(SCC4OCCO4)nc32)c1 | inactive: 100%
Cc1cc(-c2ccccc2)nc(N2CCC(C(=O)NCc3ccccc3Cl)CC2)n1 | inactive: 100%
Cc1cccn2c(=O)c(/C=N/O)c(N3CCCCC3)nc12 | inconclusive: 95%
CCCCNC(=O)c1onc(CSc2ccccc2C)c1C(=O)O | inconclusive: 86%
COc1ccc(Cn2cc(F)c(=O)n(CCC(C)C)c2=O)cc1[N+](=O)[O-] | inactive: 92%
Cc1ccc(O)c(NC(=O)c2cccc(S(=O)(=O)N3CCCCC3)c2)c1 | inconclusive: 96%
COc1ccc(CC(=O)OC(C)CN2CCCCC2)cc1 (stereo unspecified) | inactive: 103%
O=[N+]([O-])c1cc(/C=N\Nc2nccs2)ccc1O | inconclusive: 93%
COCCNc1nc(=S)[nH]c2cc(OC)c(OC)cc12 | active: 71%
O=c1c2ccccc2sn1-c1ccccc1 | inconclusive: 104%
O=C(NCc1cccnc1)Nc1cccc(NC(=O)NCc2cccnc2)c1 | inconclusive: 107%
COc1ccc(N=C2S/C(=C\c3ccc(N4CCOCC4)o3)C(=O)N2CCc2c[nH]c3ccccc23)cc1 | inconclusive: 128%
Cc1ccc(C)c(OCCn2cc(C(=O)O)c3ccccc32)c1 | active: 170% [activator]
CC1CN(c2nc3c(c(=O)n(Cc4ccc(Cl)c(Cl)c4)c(=O)n3C)n2C)CC(C)O1 (stereo unspecified) | inconclusive: 92%
CCN(C(=O)CSc1nnc(-c2ccncc2)n1C)C1CCS(=O)(=O)C1 (stereo unspecified) | inconclusive: 108%
COc1ccc(/C=C/C(=O)NC(C)CCc2ccccc2)cc1 (stereo unspecified) | inactive: 103%
CC(C)(CO)CNC(=O)c1ccc(OC2CCN(C(=O)C3CC3)CC2)cc1 | inactive: 96%
Cc1cccc(-c2nnnn2-c2cccc(C)c2)c1 | inconclusive: 95%
CC1=CC(C)(C)Nc2ccc(OC(=O)c3ccco3)cc21 | inconclusive: 89%

SMILES | GTP binding activity (% of control)
Oc1c(Cl)cc(Cl)cc1C=Nc1ccc2c(c1)OCCO2 | inconclusive: 84%
CCOc1ccc(C(=O)Nc2ccccc2C(=O)O)cc1 | inconclusive: 93%
COc1ccc(NS(=O)(=O)c2cc(NC(=O)c3cnccn3)ccc2OC)cc1Br | inactive: 95%
Cc1cc2cc(C=C(C#N)C#N)c(Cl)nc2cc1C | inactive: 98%
COc1ccc([N+](=O)[O-])cc1NC(=S)NC(NC(=O)Cc1ccc(OC)c(OC)c1)C(Cl)(Cl)Cl (stereo unspecified) | active: 74%
Cn1nc(-c2ccc(Cl)cc2)c2cc(C(=O)NCCN3CCOCC3)sc21 | inconclusive: 86%
COc1ccc(C2(CNC(=O)C(c3ccccc3)c3ccccc3)CCOCC2)cc1OC | active: 123% [activator]
Cc1ccc(-c2noc(CN3C(C)CCCC3C)n2)cc1 (stereo unspecified) | inconclusive: 107%
Cc1ccc(C(c2nnnn2C2CCCCC2)N2CCN3CCCC3C2)cc1 (stereo unspecified) | inactive: 105%
O=C(NCCc1ccc(Cl)cc1)C1CCC(CNc2nc(=S)[nH]c3ccccc23)CC1 (stereo unspecified) | inactive: 85%
CC(Oc1ccccc1)C(=O)Nc1oc(-c2ccco2)c(-c2ccco2)c1C#N (stereo unspecified) | inconclusive: 94%
O=C(/C=C/c1ccccc1)NC(NC(=S)Nc1ccc(Cl)cc1)C(Cl)(Cl)Cl (stereo unspecified) | inconclusive: 97%
Cn1nc(-c2ccc(Cl)cc2)c2cc(C(=O)NC3CC3)sc21 | inconclusive: 91%
O=C(O)C1=C[C@H](c2ccc(Br)cc2)C[C@H](OCc2ccc(CO)cc2)O1 | active: 75%
Cc1ccc2cc3cc(C(=O)N4CCN(Cc5ccccc5)CC4)sc3nc2c1 | inconclusive: 154%
N#C/C(=C(/O)CN1CCOCC1)c1nc(-c2ccccc2)cs1 | inconclusive: 107%
Cc1ccc[n+](CC(=O)Nc2cccc([N+](=O)[O-])c2)c1 | inconclusive: 97%
O=C(c1cc(-c2ccccc2)n[nH]1)N1CCc2c([nH]c3ccccc23)C1c1ccccn1 (stereo unspecified) | inactive: 98%
CCNS(=O)(=O)c1ccc(CCC(=O)NCc2ccc(C)cc2)cc1 | inconclusive: 99%
CS(=O)(=O)Nc1ccc(C2=NN(C(=O)c3ccco3)C(c3ccccc3F)C2)cc1 (stereo unspecified) | inactive: 92%
CCOC(=O)N(NC(=O)C(O)(CC(C)C)CC(C)C)c1ccccc1 | inactive: 103%
Cc1nnc(SCC(=O)Nc2nc(-c3ccc(F)cc3)cs2)[nH]c1=O | inconclusive: 92%
CCCc1nc(C)c(-c2ccc(OC)c(OC)c2)c(=O)[nH]1 | inconclusive: 106%

SMILES | GTP binding activity (% of control)
CCOC(=O)c1c(C)[nH]c2cc(Br)c(O)cc12 | inconclusive: 86%
COc1ccc(Cc2c(O)nc(SCC(=O)NC(C)(C)C)[nH]c2=O)cc1 | inactive: 96%
CC1CCc2cc(F)ccc2N1S(=O)(=O)c1ccc(Cl)nc1 (stereo unspecified) | inconclusive: 107%
Cc1cc(C)n2nc(SCC(=O)Nc3ccccc3)nc2n1 | inactive: 99%
COC(=O)c1ccc(OCC(O)CN2C(=O)c3ccccc3S2(=O)=O)cc1 (stereo unspecified) | inactive: 98%
COc1ccc(/C=N\NC(=O)c2cc(O)c(O)c(O)c2)cc1CN1CCN(c2ccc(F)cc2)CC1 | inconclusive: 93%
COC(=O)C1=C(C)N(c2ccccc2)C(=S)NC1c1ccccc1C(F)(F)F (stereo unspecified) | inconclusive: 98%
Cc1cccc(N=Cc2[nH]c3ccc(Br)c(Cl)c3c2O)c1 | inconclusive: 149%
O=C(C[n+]1cccc(CO)c1)Nc1nc2ccccc2s1 | inactive: 97%
O=C(CN1CCN(Cc2ccccc2)CC1)N/N=C/c1c[nH]c2ccccc12 | inactive: 104%
Nc1cccnc1Sc1cc(Cl)c(Cl)cc1Cl | inconclusive: 93%
C#CC1(NC(=O)NC(C)C)CCCCC1 | inactive: 101%
CCN(CC)S(=O)(=O)c1ccc(N2CCOCC2)c(NC(=O)c2ccc(C#N)cc2)c1 | inactive: 99%
CC(=O)c1ccc(NC(=O)C(=O)c2cn(CC(=O)N3CCCCC3)c3ccccc23)cc1 | inactive: 102%
CCOc1ccc(CC(=O)NNC(=S)Nc2ccccc2)cc1Br | inconclusive: 99%
COc1ccc(N2C(=O)C3NN=C(C(=O)OCc4ccccc4)C3C2=O)cc1 (stereo unspecified) | inconclusive: 101%
COc1ccc2o/c(=N/NC(=O)c3cccs3)c(C(N)=O)cc2c1 | active: 57%
Cc1oc(-c2ccccc2Cl)nc1CN1CCCN(C(=O)c2ccco2)CC1 | inconclusive: 92%
Brc1cccc(-c2cnco2)c1 | inactive: 101%
Cc1ccc(C(=O)C(C)OC(=O)c2cc3cc([N+](=O)[O-])ccc3oc2=O)cc1 (stereo unspecified) | inconclusive: 87%
COCCn1c(SCC(=O)N2CCCCC2)nc2ccccc2c1=O | inconclusive: 107%
Cc1sc2nc3c(SC(C)C(=O)O)cc(C(=O)c4ccccc4O)cn3c(=O)c2c1C (stereo unspecified) | active: 75%
COc1cc(N2CCCC2)c(OC)cc1/C=C(/C#N)c1ccc(F)cc1 | inconclusive: 115%

SMILES | GTP binding activity (% of control)
O=C(Cn1nc2ccccc2n1)N/N=C/c1cc([N+](=O)[O-])ccc1O | active: 61%
COC(=O)c1c(-c2ccc3ccccc3c2)csc1NC(=O)Cc1ccc(OC)c(OC)c1 | inactive: 100%
c1ccc2[nH]c(CSc3nc4ccccc4s3)nc2c1 | inconclusive: 105%
O=C(NCCO)/C(=C\c1cccs1)NC(=O)c1cccs1 | inconclusive: 105%
COC(=O)c1c(N)sc(C(=O)N2CCOCC2)c1C | inconclusive: 104%
O=C(NCCc1c[nH]c2ccccc12)/C(=C/c1cccnc1)NC(=O)c1ccco1 | inactive: 98%
CC(C)NC(=O)C12CC3CC(C1)CC(n1cnc(Cl)n1)(C3)C2 | active: 121% [activator]
COc1ccc(-n2nnnc2SCc2nc(N)nc(N3CCOCC3)n2)cc1 | inconclusive: 104%
CN(CCc1cn[nH]c1)Cc1nc(C(c2ccccc2)c2ccccc2)no1 | inconclusive: 95%
COc1cc(C(=O)Nc2ccncc2)cc(OC)c1OC | inconclusive: 104%
O=C(CCS(=O)(=O)c1cc(Br)cc2c1N(C(=O)C1CC1)CC2)NCc1ccco1 | inconclusive: 109%
CC(=O)N1CCc2cc(S(=O)(=O)NC3CCCc4ccccc43)ccc21 (stereo unspecified) | inconclusive: 103%
COc1ccccc1CNc1nc(S(=O)(=O)c2ccccc2)c(Cl)s1 | inconclusive: 105%
Cc1ccc(/C([O-])=C(/C(=S)NCc2ccccc2)[n+]2cccc(CO)c2)cc1[N+](=O)[O-] | inconclusive: 95%
CCc1ccc(OCCCC(=O)O)c(Br)c1 | inconclusive: 108%
O=C(NCCc1c[nH]c2ccccc12)C1CCC(Cn2c(=S)[nH]c3ccccc3c2=O)CC1 (stereo unspecified) | inconclusive: 106%
COc1cc(C(=O)Nc2cc(C)ccn2)cc(OC)c1OC | inconclusive: 100%
COc1ccc(/C=N/NC(=O)CN(Cc2ccccc2)S(=O)(=O)c2ccc3c(c2)OCCO3)cc1 | inactive: 89%
CO/N=C/c1ccc(N2CCCC2)c([N+](=O)[O-])c1 | inconclusive: 90%
Cc1ccc(CNC(=O)c2ccccc2N)cc1 | inconclusive: 106%
Cn1cc(/C=C2\SC(=S)N(NC(=O)c3ccccc3Cl)C2=O)c2ccccc21 | inconclusive: 94%
Cc1ccc(NC(=O)C(=O)c2c(-c3ccccc3)cc3ccccn23)cc1S(=O)(=O)N1CCOCC1 | inconclusive: 93%
